Measured values taken from PubChem BioAssay AID504706 (National Center for Advancing Translational Sciences (NCATS), 2011).
Among all 320,000 compounds or so, about 200 (0.062%) were called active. This list was built around the results that the source calls inconclusive (neither active nor inactive); the mix of calls is not that of the screen. The call rests on the fitted dose curve; in most records, active means well fitted activation curve with a large enough effect; inconclusive means small, poorly fitted or top-dose-only effect; inactive means no such curve, though single readings can be large or run the other way. No potency is given beside an inconclusive call; the fits are too rough.

assay: qHTS assay for re-activators of p53 using a Luc reporter; settings: H1299 p53-A138V BP100-luciferase reporter, luminescence, 24 h; series mostly up to 92.2 µM; further: nearly all actives have a fitted effect of over 45% in size
How it was run: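 p53-null H1299 cells stably carrying temperature-sensitive p53-A138V and a BP100-luciferase reporter were pinned with compounds (4-point, 1:5 series) and held 24 hrs at 37 deg C. Luminescence was read 10 min after detection reagent.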
Potency means the concentration at half of the fitted maximal effect; tags describe the fitted curve by direction and shape.

Row | SMILES | Potency
1 | Cc1cccc2nc(CSc3nnc(N)s3)cn12 | inconclusive [activator, single point]
2 | O=S(=O)(Nc1cccc(-c2ccc(N3CCCCCC3)nn2)c1)c1ccc(C(F)(F)F)cc1 | inconclusive [activator, partial curve, poor fit]
3 | C/C(=N\NC(=O)c1nnn(-c2nonc2N)c1C)c1ccc(OCc2ccccc2)cc1 | inconclusive [activator, partial curve, poor fit]
4 | CCCCn1c(SCC(=O)Nc2ccc(OC)cc2)nc2ccc(N3CCOCC3)cc2c1=O | inactive
5 | CCOc1cccc(C(=O)Nc2nnc(-c3ccco3)s2)c1 | inconclusive [activator, partial curve, poor fit]
6 | COc1cc(OC)c(OC)cc1CN1CCCC(C(=O)c2ccc3c(c2)OCO3)C1 (configuration not stated) | inconclusive [activator, single point]
7 | CCOC(=O)c1nc(N)c(C(=O)OCC)[nH]1 | inconclusive [activator, single point]
8 | COc1cccc(NC(=O)c2cccc(N3C(=O)C4C5C=CC(C5)C4C3=O)c2)c1 (configuration not stated) | inconclusive [activator, single point]
9 | O=C(NNC(=O)C1[C@H]2CCCC[C@@H]12)c1ccc(=O)oc1 (some centres not stated) | inactive
10 | CCCN1CCN(S(=O)(=O)c2ccc3c(c2)CCC(=O)N3)CC1 | inactive
11 | Cc1ccnc(NC(=O)CNC(=O)c2sc3ccccc3c2Cl)c1 | inconclusive [activator, partial curve, poor fit]
12 | Cc1ccc(-c2csc3ncnc(N4CCc5ccccc5C4)c23)cc1 | inconclusive [activator, partial curve, poor fit]
13 | CC(C)(C)C(=O)Nc1nc(-c2ccc3c(c2)OCO3)cs1 | inconclusive [activator, partial curve, poor fit]
14 | N#CC1=C2Sc3ccccc3N2CCCC1=O | inconclusive [activator, partial curve, poor fit]
15 | O=C(CCC(=O)Nc1ccccc1)N/N=C/c1ccc2c(c1)OCO2 | inconclusive [activator, partial curve, poor fit]
16 | CCN(CC)c1nc(OCCNC(=O)Nc2ccccc2)nc(N(CC)CC)n1 | inactive
17 | Cc1c(Cl)cccc1NC(=S)N1CCN(S(=O)(=O)c2cccs2)CC1 | inconclusive [activator, single point]
18 | C=CCNC(=S)Nc1nc2c(cc1C(=O)OCC)CCCC2 | inconclusive [activator, partial curve, poor fit]
19 | CCc1ccc(OCC(=O)NC(NC(=S)Nc2ccccc2C)C(Cl)(Cl)Cl)cc1 (configuration not stated) | inconclusive [activator, partial curve, poor fit]
20 | O=C(O)Cc1csc(Nc2cccc(Cl)c2)n1 | inconclusive [activator, full curve, poor fit]
21 | O=C(Nc1ccc2c(c1)OCCO2)c1cccc(Cl)c1Cl | inconclusive [activator, full curve, poor fit]

Row | SMILES | Potency
22 | S=c1[nH]nc(-c2ccccn2)n1/N=C/c1ccc(Cl)c(Cl)c1 | inactive
23 | Cc1nc(/C=C/c2ccccc2)[nH]c(=O)c1-c1ccccc1 | inconclusive [activator, full curve, poor fit]
24 | Cc1ccc(S(=O)(=O)/N=C(\N)Nc2nc(C)c3ccc(C)cc3n2)cc1 | inactive
25 | CC(=O)Nc1cccc(C(=O)N/N=C/c2cccnc2)c1 | inactive
26 | COc1ccc(N(CC(=O)NCCSC2CCCCC2)S(=O)(=O)c2ccc(C)cc2)cc1 | inconclusive [activator, partial curve, poor fit]
27 | O=C(NCCC1=CCCCC1)c1ccc(F)cc1 | inconclusive [activator, partial curve, poor fit]
28 | Fc1ccccc1/C=C1\CCCC2=C1NC(=S)NC2c1ccccc1F (configuration not stated) | inconclusive [activator, single point]
29 | Cc1ccc(SC(CC(=O)c2ccc(C)cc2)C(=O)O)cc1 (configuration not stated) | inconclusive [activator, single point]
30 | C=CCSc1nc2sc3c(c2c(=O)n1CC)CCc1ccccc1-3 | inconclusive [activator, single point]
31 | Cc1ccc(C2C(C#N)=C(N)Oc3n[nH]c(-c4cccs4)c32)s1 (configuration not stated) | inactive
32 | O=C(Nc1nnc(-c2ccccc2)s1)c1ccc(Cl)c(S(=O)(=O)N2CCOCC2)c1 | inconclusive [activator, single point]
33 | COc1ccc(C(=O)Nc2ccccc2C(=O)NC(Cc2ccc(O)cc2)C(=O)NNC(=O)c2ccc(C)cc2)cc1 (configuration not stated) | inactive
34 | CN(C)c1ccc(CNC2CC(C)(C)NC(C)(C)C2)cc1 | inconclusive [activator, partial curve, poor fit]
35 | CC(C)(C)c1cc(N)n(-c2ccc(C(=O)O)cc2)n1 | inactive
36 | CCOC(=O)c1sc(=NC(=O)c2c(F)cccc2F)n(C)c1C | inconclusive [activator, partial curve, poor fit]
37 | O=C(Nc1ccccc1)c1ccc[nH]1 | inconclusive [activator, partial curve, poor fit]
38 | O=C(c1ccc([N+](=O)[O-])cc1[N+](=O)[O-])N1CCN(C(=O)C2CCCO2)CC1 (configuration not stated) | inconclusive [activator, full curve, poor fit]
39 | Cc1ccc(C(=O)n2c(=S)nc3ccccn32)cc1 | inconclusive [activator, full curve, poor fit]
40 | O=S(=O)(c1ccc(N2CCCC2)cc1)C(F)(F)F | inconclusive [activator, single point]
41 | CC(C)C(=O)Nc1ccc(-c2nc3cccnc3o2)cc1 | inactive
42 | O=[N+]([O-])c1ccc(O)c(-c2nn[nH]n2)c1 | inconclusive [activator, single point]
